Experimental data from the supplement of paper PMC4967469.

How the values were obtained:
Assay in all cases: Viability of human cancer cell lines after 72 h of drug (GDSC screen)
XMD15-27 = compound: C=CC(=O)Nc1ccc(C(=O)c2sc(Nc3ccc(N4CCN(C)CC4)cc3OC)nc2N)cc1 [XMD15-27]; settings: top dose 10.24 µM; top dose inferred
Protocol: (§1)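 Human cancer cell lines in 384-well plates, medium with 10% serum, drug for 72 h over a 256-fold dose range (nine 2-fold or five 4-fold steps up to the top dose). Adherent lines were fixed and stained with the nucleic acid dye Syto60, suspension lines read with resazurin; signal relative to control wells, capped at 0 and 100%. One two-parameter sigmoid per drug and line, fitted in a mixed model over all curves with the slope shared within a line.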

Temsirolimus = compound: CO[C@H]1C[C@@H]2CC[C@@H](C)[C@@](O)(O2)C(=O)C(=O)N2CCCC[C@H]2C(=O)O[C@H]([C@H](C)C[C@@H]2CC[C@@H](OC(=O)C(C)(CO)CO)[C@H](OC)C2)CC(=O)[C@H](C)/C=C(\C)[C@@H](O)[C@@H](OC)C(=O)[C@H](C)C[C@H](C)/C=C/C=C/C=C/1C [Temsirolimus]; settings: top dose 0.2 µM
Protocol: as §1

SL 0101-1 = compound: CC(=O)O[C@@H]1[C@@H](OC(C)=O)[C@@H](O)[C@H](Oc2c(-c3ccc(O)cc3)oc3cc(O)cc(O)c3c2=O)O[C@H]1C [SL 0101-1]; settings: top dose 10 µM; top dose inferred
Protocol: as §1

Cell Line | AUC (XMD15-27) | IC50 (XMD15-27) [µM] | AUC (Temsirolimus) | IC50 (Temsirolimus) [µM] | AUC (SL 0101-1) | IC50 (SL 0101-1) [µM]
KMRC-1 (kidney, adherent) | 0.977 | > 10.2 | 0.721 | 0.0551 | 0.977 | > 10
KYSE-520 (oesophagus, adherent) | 0.982 | > 10.2 | 0.741 | 0.0794 | 0.966 | > 10
TGBC11TKB (stomach, adherent) | 0.992 | > 10.2 | 0.985 | > 0.2 | 0.985 | > 10
NCI-H1417 (small cell lung carcinoma, suspension) | 0.941 | > 10.2 | 0.803 | 0.122 | 0.968 | > 10
ESS-1 (endometrium, adherent) | 0.973 | > 10.2 | 0.857 | 0.137 | 0.976 | > 10
P12-ICHIKAWA (T-cell lymphoblastic leukaemia, suspension) | 0.985 | > 10.2 | 0.994 | > 0.2 | 0.994 | > 10
HDLM-2 (Hodgkin lymphoma, suspension) | 0.988 | > 10.2 | 0.863 | 0.169 | 0.988 | > 10
NCI-H1563 (lung adenocarcinoma, adherent) | 0.955 | > 10.2 | 0.722 | 0.0608 | 0.985 | > 10
RKN (ovary, adherent) | 0.981 | > 10.2 | 0.37 | 0.00534 | 0.985 | > 10
SW982 (soft tissue, adherent) | 0.947 | > 10.2 | 0.598 | 0.0234 | 0.976 | > 10
NCI-H2081 (small cell lung carcinoma, suspension) | 0.985 | > 10.2 | 0.902 | > 0.2 | 0.987 | > 10
NCI-H1651 (lung adenocarcinoma, adherent) | 0.987 | > 10.2 | 0.91 | > 0.2 | 0.973 | > 10
UACC-893 (breast, adherent) | 0.978 | > 10.2 | 0.943 | > 0.2 | 0.983 | > 10
SF295 (glioma, adherent) | 0.985 | > 10.2 | 0.623 | 0.028 | 0.97 | > 10
SK-MEL-2 (melanoma, adherent) | 0.986 | > 10.2 | 0.785 | 0.0889 | 0.977 | > 10
TGBC1TKB (biliary tract, adherent) | 0.989 | > 10.2 | 0.734 | 0.058 | 0.984 | > 10
CHSA8926 (chondrosarcoma, adherent) | 0.98 | > 10.2 | 0.874 | > 0.2 | 0.98 | > 10
BHT-101 (thyroid, adherent) | 0.985 | > 10.2 | 0.781 | 0.0857 | 0.973 | > 10

Cell Line | AUC (XMD15-27) | IC50 (XMD15-27) [µM] | AUC (Temsirolimus) | IC50 (Temsirolimus) [µM] | AUC (SL 0101-1) | IC50 (SL 0101-1) [µM]
UACC-62 (melanoma, adherent) | 0.988 | > 10.2 | 0.96 | > 0.2 | 0.974 | > 10
SF268 (glioma, adherent) | 0.975 | > 10.2 | 0.783 | 0.0915 | 0.985 | > 10
KE-37 (lymphoblastic leukaemia, suspension) | 0.948 | > 10.2 | 0.504 | 0.0128 | 0.98 | > 10
JJN-3 (haematopoietic neoplasm, suspension) | 0.952 | > 10.2 | 0.813 | 0.0846 | 0.992 | > 10
RPMI-8866 (chronic myeloid leukaemia, suspension) | 0.988 | > 10.2 | 0.3 | 0.0036 | 0.933 | > 10
TE-9 (oesophagus, adherent) | 0.987 | > 10.2 | 0.97 | > 0.2 | 0.962 | > 10
Ca-Ski (cervix, adherent) | 0.968 | > 10.2 | 0.633 | 0.0304 | 0.983 | > 10
RPMI-8226 (myeloma, suspension) | 0.955 | > 10.2 | 0.413 | 0.00749 | 0.958 | > 10
CW-2 (large intestine, adherent) | 0.976 | > 10.2 | 0.987 | > 0.2 | 0.981 | > 10
LOU-NH91 (lung squamous cell carcinoma, adherent) | 0.984 | > 10.2 | 0.723 | 0.0575 | 0.986 | > 10
ROS-50 (B-cell leukaemia, suspension) | 0.985 | > 10.2 | 0.922 | > 0.2 | 0.98 | > 10
A3-KAW (B-cell lymphoma, suspension) | 0.946 | > 10.2 | 0.883 | 0.139 | 0.992 | > 10
TOV-21G (ovary, adherent) | 0.984 | > 10.2 | 0.4 | 0.00648 | 0.983 | > 10
MOLP-8 (myeloma, suspension) | 0.958 | > 10.2 | 0.631 | 0.0282 | 0.985 | > 10
NB(TU)1-10 (neuroblastoma, adherent) | 0.993 | > 10.2 | 0.99 | > 0.2 | 0.982 | > 10
5637 (bladder, adherent) | 0.989 | > 10.2 | 0.892 | 0.198 | 0.987 | > 10
TUR (B-cell lymphoma, suspension) | 0.988 | > 10.2 | 0.719 | 0.0493 | 0.988 | > 10
IMR-5 (neuroblastoma, adherent) | 0.87 | 7.06 | 0.992 | > 0.2 | 0.991 | > 10

Lines with a small IC50 respond at low doses; where the fit passes the top or lowest dose, that dose stands as a limit. AUC, from the same fit, is the share of area under the viability curve across the 256-fold dose range; values near 1 show little effect. For part of these data: Where the top dose is marked as inferred, it comes from the curve model; the source does not state it.
